Results taken from US20050070480A1, “Peptide arginals and methods for treating disseminated intravascular coagulation” (priority 2001, published 2005).

Tested on: endotoxin-treated rats
Assay: Rat model for disseminated intravascular coagulation (fibrin deposition, platelet count, FDP)
[1] = endotoxin 10 mg/kg rats, 50 NIH U/kg/h i.v. bolus + infusion, 4 h
[2] = endotoxin 10 mg/kg rats, 0.25 mg/kg/h i.v. bolus + infusion, 4 h, microthrombi index change vs saline group

## heparin
[1]
  125I-fibrin deposition Kidney: 28%
  125I-fibrin deposition Liver: 22%
  Change in FDP: 2.37
  Change in platelet Count: 43%

## CCOC(=O)N[C@H](CC1CCCCCC1)C(=O)N1CCC[C@H]1C(=O)N[C@H](C=O)CCCNC(=N)N [Compound 1, ethoxycarbonyl-D-cycloheptylalanyl-L-prolyl-L-arginine aldehyde]
Endotoxin 10 mg/kg rats, 0.25 mg/kg/h i.v. bolus + infusion, 4 h
  Change in platelet Count: 48%
Endotoxin 10 mg/kg rats, 0.25 mg/kg/h i.v. bolus + infusion, 4 h, Aggristin precipitation assay
  Change in FDP: 1.66
[2]
  125I-fibrin deposition Kidney: 26%
  125I-fibrin deposition Liver: 13%

## CN[C@H](Cc1ccccc1)C(=O)N1CCC[C@H]1C(=O)N[C@H](C=O)CCCN=C(N)N [C, D-MePhe-Pro-Arg-H, reference compound]
rat, in vivo
  125I-fibrin deposition Kidney: 33%
  125I-fibrin deposition Liver: 30%
  Change in FDP: 1.94
  Change in platelet Count: 52%
